The list shows a part of the results.

These results are taken from paper PMC12136788.

T1: UNK ZnF1-3 (human, UniProt Q9C0B0 31-174)
T1 sequence: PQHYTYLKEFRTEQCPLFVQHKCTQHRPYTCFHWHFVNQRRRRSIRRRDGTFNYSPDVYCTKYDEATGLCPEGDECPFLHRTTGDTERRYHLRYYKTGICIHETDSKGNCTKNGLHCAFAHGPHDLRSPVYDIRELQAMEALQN

B1: chr10:17279241:17279242:+_ENSG00000026025_ENST00000224237|hu_hu|FALSE|FALSE (ssRNA)
RNA: GGGAGUUCUACAGUCCGACGAUCUUUUUAUUCAAGGUCAUCGUGAUGCUGAGAAGUUUCGUUGAUAACCUGUCCAUCUCUAGUUUCAACCGUCUUAAUCAGAAGUGUCCUUUUUGAGUGGGUAUCAACCAGAGGGAGUGAAUCCAACAGAGGAUUGAGCAUCA
B2: chr4:115894766:115894767:+_ENSMUSG00000028698_ENSMUST00000030464|mus_hu|mus_mus_mus_hu_True|1_68 (ssRNA)
RNA: GGGAGUUCUACAGUCCGACGAUCUUCCACACGGAAAUGUACUUCGGGUUUUCCAACGGCCAGUACCGUCCAGCCAAAACUACCCGAACAGGGUCCUCCCCCUCUCUCCUACAGAACACAACAAAAUGCCCCCGAACCCCGAACCAACAGAGGAUUGAGCAUCA
B3: chr4:107939044:107939045:-_ENSMUSG00000034636_ENSMUST00000043616|mus_hu|FALSE|FALSE (ssRNA)
RNA: GGGAGUUCUACAGUCCGACGAUCACUGAUAAUGUCUGUAAUCGUGAUAUCAGCAUUCACACCUGUGGCAUCAAGUUCCACUAACUUGUGGUGGCAGAAAGCUUUCCGGAAAGCAACAGCAGAGAUCUUUGCUUUGCGAAUGCACAACAGAGGAUUGAGCAUCA
B4: chr3:119450855:119450856:-_ENSMUSG00000028134_ENSMUST00000029780|mus_hu|mus_mus_mus_hu_False|8_98 (ssRNA)
RNA: GGGAGUUCUACAGUCCGACGAUCUGUGGUGCCACUAAGAGGUGUAUUUGCUGUCUGGACAGCUGUCACAGCUUGAAGAACUGCCUGAGCACGUUGGUUUAAUGUAUUAUCUGUCUUUAGUUCUUUGUGAUUGGAGUACUGGAUCAACAGAGGAUUGAGCAUCA
B5: chr1:163117127:163117128:-_ENSG00000143248_ENST00000313961|hu_mus|hu_hu_hu_mus_False|18_88 (ssRNA)
RNA: GGGAGUUCUACAGUCCGACGAUCUGCUACAAAGGAUGUAACUCAACACUCACAGGAACUUUUGGAAGCCUGACCAGAUGACUACUUGAUUAGCUCCUUAUAAAAUUCAGAGCGCACAAAGCGAGGCAGAGAAUCCUUCUCCAUCAACAGAGGAUUGAGCAUCA
B6: chr6:160170297:160170298:+_ENSG00000146457_ENST00000337387|hu_mus|FALSE|FALSE (ssRNA)
RNA: GGGAGUUCUACAGUCCGACGAUCUCACACCAACGACAAUGCUGUUUAACAUGUGCCUGCUGAAUGAGAUGAGGGUUUACUGAAUAAUGGGAGUCUCAUCACAGCCAAAUACCAUAUACAAUCUAGUUGUGAAAUGAAUGCUUACAACAGAGGAUUGAGCAUCA

The target in the experiment is T1, UNK ZnF1-3. The experiment is described as follows: nsRBNS (natural sequence RNA bind-n-seq); RBNS binding buffer (assumed for nsRBNS): 25 mM Tris pH 7.5, 150 mM KCl, 3 mM MgCl2, 0.01% Triton X-100, 500 ug/ml BSA, 20 U/ml SUPERase-In, 4 C; UNK is unkempt and MSI1 is Musashi-1; names of the RNAs are library labels; protein concentration not given here; high values mean tight binding.
B1 yielded a binding signal of 0.661 enrichment R.

Consider B2, for which the binding signal was determined as 1.11 enrichment R.

With B3, the binding signal was 1.11 enrichment R. The molecule B4 came in with a binding signal of 0.821 enrichment R. As for B5, the figure is 1.15 enrichment R. Next, B6: 1.05 enrichment R.
